# Some of the results follow. At the low end of the ranking, values are background and their order means little.
# Target: T1, GST-Rok-C97-191 (UniProt O34857)
# T1 sequence: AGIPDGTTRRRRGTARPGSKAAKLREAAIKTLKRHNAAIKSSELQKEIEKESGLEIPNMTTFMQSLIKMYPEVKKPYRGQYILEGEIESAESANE
# Experiment: protein binding microarray;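 further: rank score from −0.5 (least bound) to 0.5 (best bound)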
# Details: Rok is a gene silencer of Bacillus subtilis; high values mean tight binding; most listed sequences are background and not binding sites; double strand, one strand shown
row,Sequence,binding signal
1,ATCACACC,-0.0624 E-score
2,CCCGGCTA,-0.0894 E-score
3,ATTGCAGG,-0.207 E-score
4,ACTCAGCT,-0.0323 E-score
5,ATAACGAG,0.102 E-score
6,CGTCCAGA,-0.164 E-score
7,CCTGCGAA,-0.172 E-score
8,CTCTAATC,0.0499 E-score
9,CTCCCCAA,-0.222 E-score
10,AAGTCTGC,0.00543 E-score
11,GCAAAGGC,-0.228 E-score
12,TACTGTAA,0.323 E-score
13,TCGGCCGA,-0.374 E-score
14,CAGCTTCG,-0.0599 E-score
15,GAAGGAAA,-0.238 E-score
16,CGTTACCA,0.258 E-score
17,GTCAGGCA,-0.163 E-score
18,TCTACCAA,0.315 E-score
19,TATTAGAA,0.293 E-score
20,ACCTGCCA,-0.295 E-score
21,ACCCGCAT,-0.181 E-score
22,GGCTAAAC,-0.0896 E-score
23,CGGCAAAA,-0.0738 E-score
24,ACCAAACT,0.259 E-score
25,AGGGTGCG,-0.184 E-score

row,Sequence,binding signal
1,AAGGGGCA,-0.234 E-score
2,TGAGTGCA,-0.0754 E-score
3,AAAACAGA,0.0436 E-score
4,TCAAGAAA,-0.0225 E-score
5,ACAGAAGC,-0.0456 E-score
6,GTCCGGTA,-0.0421 E-score
7,CAACCGGA,-0.237 E-score
8,ACCGTGGA,-0.011 E-score
9,GGAATCCC,-0.086 E-score
10,AGACGAGG,-0.237 E-score
11,CGCAAATA,0.178 E-score
12,CTCCGAAC,-0.207 E-score
13,CATTTCGA,-0.0901 E-score
14,ACCATCAC,0.052 E-score
15,GCACTGAA,-0.138 E-score
16,CGGATAGC,0.0167 E-score
17,CCGTATTC,0.0694 E-score
18,CATGACGG,-0.0455 E-score
19,ACTTGGTA,0.0663 E-score
20,CCCAGGAC,-0.194 E-score
21,AAAAGCAT,-0.052 E-score
22,GAAAGGAC,-0.224 E-score
23,AAACGTAT,0.307 E-score
24,GAATACTA,0.209 E-score
25,CCTAAGGC,-0.0966 E-score

row,Sequence,binding signal
1,AAGAGGCG,-0.171 E-score
2,GGAGGAGA,-0.18 E-score
3,ATGCGCCA,-0.032 E-score
4,CGCAAGGA,-0.288 E-score
5,TACCTTAA,0.207 E-score
6,AATCCTTA,0.107 E-score
7,GCCGCTTA,-0.148 E-score
8,CAAACTGA,-0.143 E-score
9,TCTGCAGA,0.0564 E-score
10,CGGCACAC,-0.139 E-score
11,ACCTGAGC,-0.097 E-score
12,ACGATAGA,0.208 E-score
13,CCCTACAG,-0.152 E-score
14,ATGGCCAA,0.217 E-score
15,GCGGGAGC,-0.303 E-score
16,AATATTAC,0.284 E-score
17,GACGGTGA,-0.0734 E-score
18,ATGTCGCC,-0.0714 E-score
19,GCCTGGCC,-0.301 E-score
20,CAGGGGCA,-0.267 E-score
21,TATATGGA,0.343 E-score
22,AATTAAAG,0.143 E-score
23,GGCCCAAC,-0.254 E-score
24,ATCGGTCA,0.0708 E-score
25,GCCATCTA,0.0264 E-score

row,Sequence,binding signal
1,CTTGGCTC,-0.0982 E-score
2,TACTACCA,0.404 E-score
3,ATTGTTAC,0.143 E-score
4,CGCGATCC,-0.11 E-score
5,GAGATTCC,-0.0406 E-score
6,ACGCGGCT,-0.308 E-score
7,AAATCCCA,0.123 E-score
8,ACCCATTG,-0.0987 E-score
9,AAACATGG,-0.0577 E-score
10,CATATAGG,0.117 E-score
11,CAACCATA,-0.187 E-score
12,CTCGCCCC,-0.222 E-score
13,CTATCTAC,0.433 E-score
14,CGTCCTGA,-0.135 E-score
15,CCCGAGGA,-0.129 E-score
16,ATCAACAC,-0.0158 E-score
17,ATGTTAAT,0.169 E-score
18,CCGTATAG,-0.0288 E-score
19,TCACTTCA,-0.11 E-score
20,TGAGGCCA,-0.304 E-score
21,GTGAGGGA,0.0641 E-score
22,GCGGCAAA,-0.0471 E-score
23,AGCATGGA,0.105 E-score
24,AAAACCGA,0.0507 E-score
25,ATGAGGTA,0.112 E-score

row,Sequence,binding signal
1,AGAGCCTC,-0.282 E-score
2,GTGTCTAA,-0.0421 E-score
3,GGAGCCCC,-0.349 E-score
4,GCGCAAGA,-0.093 E-score
5,CCCTACCA,0.0486 E-score
6,TCATTCCA,-0.0328 E-score
7,CTACTCGA,0.136 E-score
8,CCCGTGCA,-0.0457 E-score
9,GACACAAC,-0.15 E-score
10,GCCTATGA,-0.044 E-score
11,AGCTCCCA,-0.218 E-score
12,AGGCTACA,-0.0622 E-score
13,AAATCTTC,0.0559 E-score
14,ATCAAATG,-0.0733 E-score
15,ACATTCTG,-0.0417 E-score
16,AATATGTG,0.199 E-score
17,CACGGAAG,0.00148 E-score
18,CACACCAC,0.0104 E-score
19,GTCGGATA,0.0236 E-score
20,CAGGCGGA,-0.16 E-score
21,GTAGAGGA,-0.0267 E-score
22,ACCGAAGA,0.134 E-score
23,CTCGATCC,0.0526 E-score
24,CGGGCAGA,-0.312 E-score
25,GACTTTTA,0.201 E-score

row,Sequence,binding signal
1,CTACTGCC,0.0173 E-score
2,CTAAGCAG,-0.253 E-score
3,ACATCGTG,-0.0131 E-score
4,AATCTAGC,0.234 E-score
5,GCAAGGGA,-0.166 E-score
6,CATAGAGA,0.0156 E-score
7,TCGAATCA,-0.12 E-score
8,ATTTATAG,0.358 E-score
9,GAAGGTGC,-0.236 E-score
10,AATGATAC,0.22 E-score
11,TAAATCAA,0.178 E-score
12,GTCGTTAA,0.136 E-score
13,GCAGCACA,-0.15 E-score
14,GAGGCCTA,0.0148 E-score
15,CGACGGAA,0.00138 E-score
16,CCCTTCCA,-0.249 E-score
17,CCTGAGCC,-0.316 E-score
18,CCTACCGC,0.0131 E-score
19,AGTATTGC,0.0149 E-score
20,AAAGATAG,0.168 E-score
21,GCGTCCTA,-0.0931 E-score
22,CTCTACGC,0.00966 E-score
23,CCTTTATA,0.193 E-score
24,ACAATTGC,0.13 E-score
25,AGGGGTTC,-0.121 E-score

row,Sequence,binding signal
1,CGTTGACC,-0.166 E-score
2,CACTCTTA,-0.0274 E-score
3,GAGAATAA,0.0913 E-score
4,AGGAAAAG,-0.183 E-score
5,GGTGATGA,-0.176 E-score
6,ATCTGTTG,-0.108 E-score
7,CGATCTAC,0.335 E-score
8,CATCTCAA,-0.0536 E-score
9,TGCTGGAA,-0.107 E-score
10,ACCTAACT,0.128 E-score
11,CCACGTAA,0.0808 E-score
12,CGTGGAGC,0.0609 E-score
13,AGATTAAC,0.13 E-score
14,ACACGCAT,0.134 E-score
15,AAGTATAC,0.273 E-score
16,ACAGCACC,-0.133 E-score
17,CACCGGGA,-0.297 E-score
18,ACCACGAC,-0.19 E-score
19,GCAAGCTA,0.0227 E-score
20,TGCACGAA,0.0181 E-score
21,AGTAGGCG,0.0257 E-score
22,GTCAGGAA,-0.15 E-score

# Source: PMC6212790
